The values that follow come from publication PMC4336329 (PLoS ONE, 2015).

The structures appear in SMILES notation. About 2,200 (0.71%) of roughly 310,000 compounds showed an effect of 50% or more. Effects have a minus sign here. The list shows a part of the results.

The target in this assay is human ether-à-go-go-related gene (hERG) potassium channel (human, UniProt Q12809). Nature of the assay: primary screen, population patch clamp on CHO cells stably expressing hERG.
Chain of human ether-à-go-go-related gene (hERG) potassium channel (Q12809 whole entry, looked up): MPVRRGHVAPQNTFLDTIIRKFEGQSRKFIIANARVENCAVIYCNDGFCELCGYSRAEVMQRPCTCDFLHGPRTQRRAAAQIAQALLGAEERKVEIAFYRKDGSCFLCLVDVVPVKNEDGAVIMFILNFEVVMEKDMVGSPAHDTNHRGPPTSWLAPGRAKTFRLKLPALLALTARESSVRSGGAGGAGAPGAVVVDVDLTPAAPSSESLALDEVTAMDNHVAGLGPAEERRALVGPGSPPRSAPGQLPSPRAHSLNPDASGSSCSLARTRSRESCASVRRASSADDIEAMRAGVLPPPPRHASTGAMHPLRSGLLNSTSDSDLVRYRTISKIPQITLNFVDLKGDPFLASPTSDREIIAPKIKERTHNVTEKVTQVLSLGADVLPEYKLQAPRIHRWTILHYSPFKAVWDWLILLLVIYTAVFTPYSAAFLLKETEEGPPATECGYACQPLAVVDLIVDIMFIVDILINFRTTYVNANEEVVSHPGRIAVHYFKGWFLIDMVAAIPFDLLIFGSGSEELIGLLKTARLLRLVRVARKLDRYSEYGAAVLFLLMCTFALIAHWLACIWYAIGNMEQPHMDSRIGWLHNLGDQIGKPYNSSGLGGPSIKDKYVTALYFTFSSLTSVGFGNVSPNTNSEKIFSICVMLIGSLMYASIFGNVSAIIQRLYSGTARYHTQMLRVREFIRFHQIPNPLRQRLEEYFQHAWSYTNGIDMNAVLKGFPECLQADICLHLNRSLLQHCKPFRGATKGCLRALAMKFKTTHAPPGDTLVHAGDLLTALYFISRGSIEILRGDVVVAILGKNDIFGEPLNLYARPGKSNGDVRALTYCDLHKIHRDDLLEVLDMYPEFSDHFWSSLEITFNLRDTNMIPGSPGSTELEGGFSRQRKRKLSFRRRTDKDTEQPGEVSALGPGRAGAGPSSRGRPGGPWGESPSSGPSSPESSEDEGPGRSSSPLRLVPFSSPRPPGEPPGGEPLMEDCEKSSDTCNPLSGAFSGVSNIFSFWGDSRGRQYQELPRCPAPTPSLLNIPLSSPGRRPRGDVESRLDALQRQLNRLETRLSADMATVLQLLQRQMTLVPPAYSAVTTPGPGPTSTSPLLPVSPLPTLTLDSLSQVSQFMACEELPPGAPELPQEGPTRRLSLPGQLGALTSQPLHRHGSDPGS
As to `CCCNC(=O)Nc1ccc(C)cc1C`, the “hERG current change (%, negative = inhibition) at 1uM” value was 14.2%.

On to `Cl.N=c1sccn1CC(=O)NC(c1ccccc1)c1ccccc1`, for which the “hERG current change (%, negative = inhibition) at 1uM” value is recorded as -19.7%.

As to `Cc1cccc(C(=O)Nc2ccnc(-c3cccnc3)n2)c1`, the “hERG current change (%, negative = inhibition) at 1uM” value was found to be 6.86%.

In the case of `COc1ccc(/C=N/Nc2nnc(-c3ccccc3)c(=O)[nH]2)cc1`, the “hERG current change (%, negative = inhibition) at 1uM” value was 5.63%.

Consider `CN(CC(=O)Nc1ccc(Cl)cc1)C1CCCCC1`, for which the “hERG current change (%, negative = inhibition) at 1uM” value is given as 10.1%.

With `O=S(=O)(Nc1cccc2cccnc12)c1ccc(S(=O)(=O)N2CCCC2)cc1`, the “hERG current change (%, negative = inhibition) at 1uM” value was found to be 1.07%.

With `Cc1ccc(NC(=O)C2CCN(C(=O)c3cccs3)CC2)cc1`, the “hERG current change (%, negative = inhibition) at 1uM” value is 8.9%.

`CC(C)c1cc(NC(=O)CCl)on1`: the “hERG current change (%, negative = inhibition) at 1uM” value is reported as 14.6%.

Take `Cc1ccc(S(=O)(=O)N2CCC(C(=O)NNC(=O)c3ccccc3)CC2)cc1`: the “hERG current change (%, negative = inhibition) at 1uM” value was 5.1%.

In the case of `Cl.O=C(OCC1CCNCC1)c1ccc2c(c1)OCO2`, the “hERG current change (%, negative = inhibition) at 1uM” value came to 16.5%.

For the compound `CC1CN(S(=O)(=O)c2ccc(C(=O)Nc3nnc(-c4ccccn4)o3)cc2)CC(C)O1` (stereo not shown), the “hERG current change (%, negative = inhibition) at 1uM” value is given as 4.53%.

Turning to `Cc1ccc(CCN2CC(C(=O)NCCc3ccccc3)CC2=O)cc1` (stereo not shown), the “hERG current change (%, negative = inhibition) at 1uM” value is 30.3%.

As to `O=NNc1nc2ccccc2n1Cc1ccccc1`, the “hERG current change (%, negative = inhibition) at 1uM” value was found to be 1.88%.

Regarding `CCN(CC(=O)Nc1c(F)cccc1F)C(=O)c1cc(C)oc1C`, the “hERG current change (%, negative = inhibition) at 1uM” value came to 2.77%.

Consider `Cc1ccc(S(=O)(=O)N(C)C)cc1NC(=O)COC(=O)c1ccc2c(=O)n3c(nc2c1)CCC3`, for which the “hERG current change (%, negative = inhibition) at 1uM” value came out at 6.83%.

With `C=CCn1c(C(CC)CC)nc2ccccc21`, the “hERG current change (%, negative = inhibition) at 1uM” value came out at 11.2%.

Turning to `CC1CCN(CCc2nc3cc(NS(=O)(=O)c4ccccc4)ccc3n2C)CC1`, the “hERG current change (%, negative = inhibition) at 1uM” value was -53.3%.

For `COc1ccc(CNC2CCCc3ccccc32)c(OC)c1` (stereo not shown), the “hERG current change (%, negative = inhibition) at 1uM” value is listed as 1.49%.

As to `Cc1ccc2nsnc2c1S(=O)(=O)N1CCN(CCc2ccccc2)CC1`, the “hERG current change (%, negative = inhibition) at 1uM” value is 4.91%.

Consider `Cc1cc(NC(=O)CSc2nnc(C)c(=O)n2N)no1`, for which the “hERG current change (%, negative = inhibition) at 1uM” value is 8.28%.

For the compound `Cc1ccc(N=CNc2ccc(C)cc2C)c(C)c1`, the “hERG current change (%, negative = inhibition) at 1uM” value turned out to be 14.3%.

For `Cc1ccc(-c2cc(C(=O)NCc3cn(C)nc3C)c3cc(Br)ccc3n2)cc1`, the “hERG current change (%, negative = inhibition) at 1uM” value was determined as 7.49%.

In the case of `O=C(COc1ccc(F)cc1)N1CCCCCCC1`, the “hERG current change (%, negative = inhibition) at 1uM” value came out at 17.4%.

With `O=C(NCc1ccc2c(c1)OCO2)C1CCN(c2ccc(S(=O)(=O)N3CCCC3)cc2)CC1`, the “hERG current change (%, negative = inhibition) at 1uM” value was -0.495%.

Consider `CCN(CC)C(=O)/C(=C/c1cn(S(=O)(=O)N(C)C)c2ccccc12)NC(=O)c1ccc(OC)cc1`, for which the “hERG current change (%, negative = inhibition) at 1uM” value is listed as 11.8%.

`COc1ccc(-c2nn3c(-c4ccco4)nnc3s2)cc1OC`: the “hERG current change (%, negative = inhibition) at 1uM” value is on record as -15.4%.

For `S=c1[nH]nc(COc2ccccc2)n1/N=C/c1ccc(Cl)cc1Cl`, the “hERG current change (%, negative = inhibition) at 1uM” value was found to be 9.09%.

For `Cc1cnc(NC(=O)CN2CCN(c3ccccc3F)CC2)s1.Cl`, the “hERG current change (%, negative = inhibition) at 1uM” value turned out to be 19.2%.

In the case of `CCOC(=O)NC(=O)COC(=O)c1ccc(Sc2ncn[nH]2)c([N+](=O)[O-])c1`, the “hERG current change (%, negative = inhibition) at 1uM” value was determined as 17.7%.

As for `S=C(NCCc1ccncc1)Nc1cccc2ccccc12`, the “hERG current change (%, negative = inhibition) at 1uM” value came out at 10.2%.

`NC(=O)N/N=C/c1cc(Br)ccc1OC(=O)c1ccccc1`: the “hERG current change (%, negative = inhibition) at 1uM” value is on record as 17.1%.

Consider `CCOc1cc(C2Nc3ccccc3NC3=C2C(=O)CC(C)(C)C3)ccc1OC(C)=O` (stereo not shown), for which the “hERG current change (%, negative = inhibition) at 1uM” value was 7.51%.

On to `Cc1ccc(Cl)cc1N1CCN(S(=O)(=O)c2ccc3c(c2)OCCO3)CC1`, for which the “hERG current change (%, negative = inhibition) at 1uM” value was determined as 17.1%.

As to `CCOC(=O)C1CCN(Cc2cn(C)nc2-c2ccc(Oc3ccccc3)cc2)CC1`, the “hERG current change (%, negative = inhibition) at 1uM” value was determined as 5.24%.

For `C=CCn1c(CCNC(=O)c2ccccc2F)nnc1SCc1nc2ccccc2c(=O)[nH]1`, the “hERG current change (%, negative = inhibition) at 1uM” value is -3.35%.

As for `CCN1CCN(CC(=O)Nc2sc3c(c2C#N)CCC(C)C3)CC1` (stereo not shown), the “hERG current change (%, negative = inhibition) at 1uM” value was -15%.

Take `CC(=O)Nc1ccc(NC(=O)CSc2nc3nc(C)cc(C)c3c(=O)[nH]2)cc1`: the “hERG current change (%, negative = inhibition) at 1uM” value amounted to 12.8%.

Consider `CCSC1=N/C(=C\c2ccccc2)C(=O)N1c1ccc(OC)cc1`, for which the “hERG current change (%, negative = inhibition) at 1uM” value came out at 6.33%.

On to `COc1ccc(C2NC(=O)C(=O)/C2=C(\O)c2ccc(Cl)cc2)cc1OC` (stereo not shown), for which the “hERG current change (%, negative = inhibition) at 1uM” value was determined as 7.56%.

With `COC(=O)C1CN(C(=O)COc2ccccc2)c2ccccc2O1` (stereo not shown), the “hERG current change (%, negative = inhibition) at 1uM” value is 12.2%.

Take `O=C(COc1ccccc1)NCc1cccs1`: the “hERG current change (%, negative = inhibition) at 1uM” value was found to be 4.09%.

As for `O=C(CCSCCc1ccccn1)Nc1ccc(Cl)cn1`, the “hERG current change (%, negative = inhibition) at 1uM” value is given as -7.62%.

For `COc1ccc2[nH]cc(CCN=C(N)N)c2c1.I`, the “hERG current change (%, negative = inhibition) at 1uM” value amounted to 11%.

For the compound `COC(=O)c1cc(C)nc(Sc2ccccc2N)n1`, the “hERG current change (%, negative = inhibition) at 1uM” value came out at 11.6%.

With `O=c1oc2ccccc2cc1-c1csc(Nc2ccc(O)cc2)n1`, the “hERG current change (%, negative = inhibition) at 1uM” value stood at 14.7%.

`CC(=O)Nc1nc2n(n1)C(c1ccc(F)cc1)C=C(c1ccccc1)N2` (stereo not shown): the “hERG current change (%, negative = inhibition) at 1uM” value stood at 10.2%.

Consider `CCOC(=O)COc1ccccc1/C=C1\NC(=O)NC1=O`, for which the “hERG current change (%, negative = inhibition) at 1uM” value was determined as 3.95%.

Take `CCOC(=O)c1cnc(SCC(=O)Nc2ccc(NC(=O)CC)c(OC)c2)nc1N`: the “hERG current change (%, negative = inhibition) at 1uM” value is on record as 7.77%.

In the case of `COc1ccc(-c2nc(CSCC(=O)N3CCC4(CC3)OCCO4)c(C)o2)cc1OC`, the “hERG current change (%, negative = inhibition) at 1uM” value stood at 7.31%.

With `CSc1cccc(NC(=S)N(CCC(C)C)C2CCN(C(C)C)CC2)c1`, the “hERG current change (%, negative = inhibition) at 1uM” value is reported as -3.15%.

For `Cc1[nH]c(C)c(S(=O)(=O)Nc2ccccc2Cl)c1C(=O)N1CCCC1`, the “hERG current change (%, negative = inhibition) at 1uM” value was found to be 16.6%.

Turning to `Cc1cnc(C(=O)N2CCCC(C(=O)c3ccc(C(F)(F)F)cc3)C2)cn1` (stereo not shown), the “hERG current change (%, negative = inhibition) at 1uM” value is given as -0.362%.

Regarding `CCOC(=O)C1CCN(c2ncnc3cc(OC)c(OC)cc23)CC1`, the “hERG current change (%, negative = inhibition) at 1uM” value was 5.75%.

As to `CCOc1ccc(CO/N=C/c2c(C)[nH]c(=O)[nH]c2=O)cc1`, the “hERG current change (%, negative = inhibition) at 1uM” value was determined as 14.2%.

For `COc1ccc(C(=O)Nc2cccc(C(C)=O)c2)cc1S(=O)(=O)N1CCOCC1`, the “hERG current change (%, negative = inhibition) at 1uM” value stood at 1.24%.

As for `CCOC(=O)C(c1ccccc1)C(Nc1ccc(F)cc1)c1ccccn1` (stereo not shown), the “hERG current change (%, negative = inhibition) at 1uM” value is 11.8%.

On to `O=C1CCCC2=C1C(c1cccnc1)Nc1ccccc1N2` (stereo not shown), for which the “hERG current change (%, negative = inhibition) at 1uM” value is reported as 10.5%.

For `CC(C)c1ccc(N(CC(=O)NCCSC(C)(C)C)S(C)(=O)=O)cc1`, the “hERG current change (%, negative = inhibition) at 1uM” value was 8.69%.
